# PubChem BioAssay AID588855 (National Center for Advancing Translational Sciences (NCATS), 2011)
# Out of some 410,000 compounds screened, about 5,000 (1.2%) were called active. The shares of active, inactive and inconclusive entries below differ from those in the screen. Calls come from the whole dose curve; as a rule, active = well fitted inhibition curve with a large enough effect; inconclusive = small, poorly fitted or top-dose-only effect; inactive = no such curve, though single readings can be large or run the other way. Potencies of inconclusive entries are doubtful fits and often do not repeat.
# Assay: qHTS for Inhibitors of TGF-b; note: nearly all actives have a fitted effect of over 65% in size
# Conditions: HepG2 CAGA-GFP TGF-b/SMAD3 reporter, GFP fluorescence, 18 h, TGF-beta stimulated, 500 pg/mL final; series mostly up to 46.1 µM
# Procedure, shortened: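 HEPG2 CAGA-GFP cells (1000/well, DMEM with 1% FBS) were pre-incubated 2 h at 37 degrees C, given compound by pin tool, then stimulated with TGF-beta at 500 pg/mL final for 18 h before per-cell GFP fluorescence imaging.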
# Potency is the fitted concentration of half-maximal effect; tags give direction and shape of the fitted curve.
row,SMILES,Potency
1,O=C(C1CCN(Cc2cc(Cl)ccc2O)CC1)N1CCN(Cc2ccccc2)CC1,inactive
2,COc1ccccc1NC(=O)COC(=O)c1ccc(S(=O)(=O)NCc2ccco2)cc1,"inconclusive: 0.316 µM [inhibitor, partial curve, poor fit]"
3,CNC(=O)c1ccc(CSc2nc3ccncc3n2Cc2ccc(C)cc2)cc1,"inconclusive: 35.5 µM [inhibitor, single point]"
4,Cc1nc(C(=O)NCc2ccccc2)sc1C1(C)CC(c2cccnc2)=NO1 (stereo not drawn),"inconclusive: 22.4 µM [inhibitor, single point]"
5,CSc1nnc(C)c(/C=C/Nc2ccc(C)cc2)n1,inactive
6,C/C(=N\Nc1nc2ccccc2[nH]1)c1ccc2c(c1)OCO2,"inconclusive: 10 µM [inhibitor, partial curve, poor fit]"
7,Clc1ccc(C2[C@H]3CN(CC4CCCCC4)[C@H](c4ccccc4)C34CC2(c2cccnc2)C4)cn1 (stereo partly drawn),"inconclusive: 17.8 µM [inhibitor, partial curve, poor fit]"
8,CCN(CC)CC#CC(OC)(c1ccccc1)c1ccccc1,"inconclusive: 15.8 µM [inhibitor, single point]"
9,O=C(Nc1cccc2ncccc12)c1ccc([N+](=O)[O-])o1,active: 12.6 µM
10,CNC(=O)C1CCN(c2nc3ccccc3nc2C(F)(F)F)CC1,"inconclusive: 3.16 µM [inhibitor, full curve]"
11,COc1ccc(N(CC(=O)Nc2nc3ccc(C)cc3s2)S(=O)(=O)c2c(C)nn(C)c2C)cc1,"inconclusive: 35.5 µM [inhibitor, single point]"
12,COc1cccc(NC(=O)Cn2c(=O)n(Cc3ccco3)c(=O)c3cc(OC)c(OC)cc32)c1,"inconclusive: 2 µM [inhibitor, partial curve, poor fit]"
13,CCc1ccccc1N1CC(C(=O)Nc2cc(C)on2)CC1=O (stereo not drawn),inactive
14,CCNC(=O)C1(C)CCN(C(=O)c2c(F)ccc(C)c2F)C1 (stereo not drawn),inactive
15,COc1ccc(CCCNC(=O)C2(C)Cc3c(-c4ccc5c(c4)OCO5)ccnc3O2)cc1 (stereo not drawn),"inconclusive: 15.8 µM [inhibitor, single point]"
16,CC(=O)c1c(C)nn(CC(=O)NC2CCCN(Cc3ccc(CC(C)C)cc3)C2)c1C (stereo not drawn),"inconclusive: 15.8 µM [inhibitor, single point]"
17,O=C(N/N=C/C1C(c2ccccc2)C1(Cl)Cl)c1cccc(Br)c1 (stereo not drawn),inactive
18,Cc1cc(C)nc(Nc2nc(C(N)Cc3ccc(Cl)cc3)cs2)n1 (stereo not drawn),active: 15.8 µM
19,O=C(Cn1ncc(N2CCCC2)c(Br)c1=O)c1ccc(Cl)cc1,"inconclusive: 2.51 µM [inhibitor, full curve]"
20,CCCCCCCC1CC(=O)C=C(C)C1C(=O)OCC (stereo not drawn),"inconclusive: 12.6 µM [inhibitor, single point]"
21,COc1ccc2cnn(CCOc3cc(C)ccc3C(C)C)c(=O)c2c1OC,"inconclusive: 7.94 µM [inhibitor, partial curve]"
22,CC(CNCCCn1cnc2c(OCc3ccccc3)ncnc21)c1ccccc1 (stereo not drawn),"inconclusive: 35.5 µM [inhibitor, single point]"

row,SMILES,Potency
1,O=C(Nc1ccc2nc(SCC(=O)N3CCOCC3)sc2c1)c1ccccc1Cl,"inconclusive: 11.2 µM [inhibitor, partial curve, poor fit]"
2,Cc1cccc(OCC(=O)Nc2ccccc2OCc2cc(=O)n3cc(C)ccc3n2)c1,inactive
3,CCOC(=O)[C@H]1[C@H]2COc3ccc(C)cc3[C@@H]2N2C(=O)CN(Cc3ccccc3)C(=O)[C@@]12C,inactive
4,O=C1/C(=C\c2ccccc2)SC(=S)N1CCC(=O)N1CCCCC1CCO (stereo not drawn),inactive
5,CCn1ccc2cc(S(=O)(=O)N3CCC(C(=O)NCc4ccc(F)cc4)CC3)ccc21,"inconclusive: 14.1 µM [inhibitor, partial curve, poor fit]"
6,O=C(C[C@H]1C(=O)N(Cc2ccccc2)C[C@@H]1c1ccc(Br)cc1)Nc1ccc(Br)cc1,"inconclusive: 35.5 µM [inhibitor, single point]"
7,Cc1ccc(S(=O)(=O)Nc2ccc(Nc3nccn4c(-c5ccc6ccccc6c5)cnc34)cc2)cc1,"inconclusive: 15.8 µM [inhibitor, partial curve, poor fit]"
8,N#CC1=C(N)Oc2cc(N)ccc2C1c1cccc(Br)c1 (stereo not drawn),"inconclusive: 25.1 µM [inhibitor, single point]"
9,COc1ccc(CCNc2ncnc3c2oc2ccccc23)cc1OC,"inconclusive: 11.2 µM [inhibitor, partial curve, poor fit]"
10,CCCC(C)Sc1nc2c([nH]1)c(=S)n(C)c(=O)n2C (stereo not drawn),"inconclusive: 35.5 µM [inhibitor, single point]"
11,C/C(=N\NC(=O)C1(C)CC1(Br)Br)c1ccc(NC(=O)c2ccc(C)o2)cc1 (stereo not drawn),inactive
12,O=C(CN(C(=O)c1ccccc1Cl)C1CCCCC1)Nc1ccc(Cl)c([N+](=O)[O-])c1,"inconclusive: 25.1 µM [inhibitor, single point]"
13,COc1ccccc1-c1cc(C(=O)N/N=C/C=C/c2ccccc2[N+](=O)[O-])c2ccccc2n1,inactive
14,O=C(CCN1C(=O)C2C3C=CC(C3)C2C1=O)Nc1nccs1 (stereo not drawn),"inconclusive: 3.16 µM [inhibitor, single point]"
15,NC1=NC(=Nc2cccc(S(N)(=O)=O)c2)c2ccccc21,inactive
16,COc1ccccc1NC(=O)CSc1nnnn1-c1ccccc1F,inactive
17,CN(C)S(=O)(=O)c1ccc(C(=O)Nc2ccc3c(c2)CCC3)cc1,"inconclusive: 35.5 µM [inhibitor, single point]"
18,CN(C)CCCN(Cc1cc2cc3c(cc2[nH]c1=O)OCO3)C(=S)Nc1ccccc1,inactive
19,CCOc1cc(CNc2ccc(Br)cc2)cc(Br)c1OCC(=O)NC(C)(C)C,"inconclusive: 11.2 µM [inhibitor, partial curve, poor fit]"
20,CC1=NN(C(=O)COc2cc(C)ccc2C(C)C)C(O)(c2ccccc2)C1 (stereo not drawn),"inconclusive: 35.5 µM [inhibitor, single point]"
21,Cc1ccccc1NC(=O)c1c(NC(=O)c2cccs2)sc2c1CCC(C)C2 (stereo not drawn),"inconclusive: 3.98 µM [inhibitor, partial curve, poor fit]"
